# Experimental data reported in PubChem BioAssay AID1454 (National Center for Advancing Translational Sciences (NCATS), 2008).
# The campaign covered roughly 130,000 compounds. About 550 (0.42%) were called active. The inconclusive results got no clear call from the source; some entries with a clear call stand among them for comparison. The call rests on the fitted dose curve; in most records, active means well fitted inhibition curve with a large enough effect; inconclusive means small, poorly fitted or top-dose-only effect, or effect the other way; inactive means flat fitted curve, though single readings scatter. Potencies of inconclusive entries are left out as doubtful fits.
# Test: qHTS Assay for Inhibitors of the ERK Signaling Pathway using a Homogeneous Screening Assay; Stimulation with EGF; further: nearly all actives have a fitted effect of over 55% in size;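 on activity change, negative = inhibition: plate controls were stimulated vehicle wells for no effect and unstimulated vehicle basal for full effect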
# Conditions: HEK293-V1b, EGF-stimulated phospho-ERK AlphaScreen; activity change, negative = inhibition: at the top concentration
# Summary of the method: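 V1b-HEK293, 1% FBS o/n; cpd 30 min 37C; EGF 25 nM final, 5 min; lyse 10 min; AlphaScreen beads 5 h RT. Normalized DMSO basal vs EGF max; Hill AC50.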
# Potency means the concentration at half of the fitted maximal effect; tags describe the fitted curve by direction and shape.
SMILES,Potency,"activity change, negative = inhibition"
CCOC(=O)C(C)Oc1cccc2c(=O)n(CC(=O)NCc3ccco3)ccc12 (centres undefined),"inconclusive [activator, full curve, poor fit]",
COc1ccc(OC)c(NC(=O)c2cc3n(n2)C(C(F)(F)F)CC(c2ccc4c(c2)OCO4)N3)c1 (centres undefined),"inconclusive [activator, single point]",
CCCCc1cc(=O)oc2cc(O)cc(O)c12,"inconclusive [inhibitor, single point]",
N#CC(C#N)=C1C=CC=CN1/C(=C\c1ccco1)C(=O)c1ccc(Cl)cc1,active: 10 µM,
O=[N+]([O-])c1cccc(-c2nc3ccccc3s/c2=N/O)c1,"inconclusive [inhibitor, single point]",
Cc1cnn(-c2nc(-c3ccccc3)cc(-c3ccccc3)n2)c1,"inconclusive [inhibitor, single point]",
CCCCN(CC)Cc1ccc(CNC(=O)Nc2ccc(Cl)cc2)o1,"inconclusive [inhibitor, partial curve]",
Cc1ccc(CNC(=O)COC(=O)c2ccc(Cl)c(N)c2)cc1,"inconclusive [activator, full curve, poor fit]",
CCCC1CC(C)(c2csc(Nc3ccc(OCC)cc3)n2)OC1=O (centres undefined),"inconclusive [inhibitor, single point]",
N#C/C(=C\C=C\c1ccccc1)c1nc(-c2ccc3c(c2)OCO3)cs1,"inconclusive [activator, partial curve]",
N#Cc1c(OCC(=O)c2ccccc2)nc2c(c1-c1ccco1)CCc1ccccc1-2,"inconclusive [activator, partial curve]",
CC(C)(C)c1ccc(OCc2ccc(C(=O)N3CCOCC3)o2)cc1,"inconclusive [inhibitor, partial curve]",
CC(C)c1c(O)ccc2c1CCC1C(C)(C)CCC[C@@]21C (some centres undefined),"inconclusive [inhibitor, single point]",
CN(C(=O)CSc1ncnc2sc(-c3ccccc3)cc12)C1CCS(=O)(=O)C1 (centres undefined),"inconclusive [inhibitor, single point]",
O=C(c1ccc2c(c1)OCO2)C1CCCN(C2CCN(CCc3ccccc3)CC2)C1 (centres undefined),"inconclusive [inhibitor, single point]",
Cc1cccc2c(N=Nc3ccc(S(=O)(=O)Nc4cccc(Cl)c4)cc3[N+](=O)[O-])c(O)[nH]c12,"inconclusive [inhibitor, full curve, poor fit]",
Nc1ncnc2c1nc(Sc1ccc(Cl)cc1)n2[C@H]1O[C@@H]2COP(=O)(O)O[C@H]2[C@@H]1O,,inactive: 16.5%
O=C(Nc1ccccc1Cl)/C(Cl)=C(\Cl)S(=O)c1ccccc1 (centres undefined),active: 31.6 µM,
Oc1ccccc1C(=S)N1CCN(c2cccc(Cl)c2)CC1,"inconclusive [inhibitor, single point]",
Fc1ccc(Nc2ncnc3sc4c(c23)CCC4)cc1F,active: 2.51 µM,
Cc1ccsc1/C=C1\SC(=S)N(CC2CCCO2)C1=O (centres undefined),"inconclusive [inhibitor, single point]",
Cc1ccc2nc(NC(=O)c3ccc(NS(=O)(=O)c4cccs4)cc3)sc2c1,"inconclusive [inhibitor, single point]",

SMILES,Potency,"activity change, negative = inhibition"
O=C(c1ccncc1)N1CCC2(CCCN(c3ccccn3)C2)CC1,"inconclusive [inhibitor, partial curve, poor fit]",
COC(=O)C/C=C/[C@@H](C)[C@@H](Cc1ccccc1Br)OC,,inactive: -0.0039%
N=c1n(Cc2ccc(Cl)cc2)c2ccccc2n1CC(O)COc1ccccc1 (centres undefined),"inconclusive [inhibitor, single point]",
COc1ccc2cc(S(=O)(=O)N3CCCCCC3)ccc2c1,,inactive: -15.5%
Oc1c(C2=NCCNC(C(F)(F)F)=C2)ccc2ccccc12,"inconclusive [inhibitor, single point]",
Cc1occc1C(=O)NCc1ccco1,,inactive: -6.12%
C=CCn1c(=NC(=O)c2cc(Cl)sc2Cl)sc2cc(S(N)(=O)=O)ccc21,,inactive: 2.08%
CC(C)/C=C1\CC/C(=C\c2ccc(N(C)C)cc2)C1=O,"inconclusive [activator, partial curve]",
O=[N+]([O-])c1ccc(COc2ccc(-c3[nH]ncc3-c3ccccc3)c(O)c2)cc1,"inconclusive [inhibitor, partial curve]",
O=C1C=C(N(CCO)Cc2ccccc2)c2ccccc2C1=O,,inactive: -0.355%
CSc1nnc(-c2cccc(NC(=S)NN)c2)o1,"inconclusive [inhibitor, single point]",
COc1ccccc1NC(=O)CN1CCSc2ccccc21,"inconclusive [inhibitor, single point]",
CC(=O)Oc1ccc(Cl)cc1/C=C/c1ccc2ccccc2n1,"inconclusive [inhibitor, single point]",
CCN1CCS/C1=C\C=C\C1=[N+](CC)CCS1,,inactive: -2.62%
O[C@@H](c1ccccc1)C1CCN(CCc2ccccc2)CC1,,inactive: -11.3%
CCN(CC)CCOc1ccc(/C(=C(\Cl)c2ccccc2)c2ccccc2)cc1,"inconclusive [inhibitor, single point]",
C=CCn1c(SCC(=O)NC(N)=O)nnc1-c1cc2c(s1)CCC(CC)C2 (centres undefined),"inconclusive [inhibitor, single point]",
CN(C)S(=O)(=O)Oc1cccc(C(=O)Nc2ccc([N+](=O)[O-])cc2)c1,"inconclusive [inhibitor, single point]",
O=Nc1c(-c2c(O)[nH]c3cc(Br)ccc23)[nH]c2ccccc12,active: 28.2 µM,
COc1ccc(NC(=O)CCC(=O)OCc2ccc([N+](=O)[O-])cc2)cc1,"inconclusive [activator, partial curve, poor fit]",
CC(=O)Nc1ccc(C(=O)OCc2ccc(Cl)c(Cl)c2)cc1,"inconclusive [inhibitor, single point]",
CC1(C)C2CC=C(/C=N/NC(=O)C3CC3)C1C2 (centres undefined),"inconclusive [activator, partial curve, poor fit]",

SMILES,Potency,"activity change, negative = inhibition"
Cc1cc(C(=O)COC(=O)c2ccc(O)cc2)c(C)n1CCc1ccc(F)cc1,"inconclusive [inhibitor, single point]",
CSC1=N/C(=C\c2ccc(Cl)cc2)C(=O)N1N(C)C,"inconclusive [inhibitor, single point]",
CCOC(=O)C1CCCN(C(=O)c2cc(-c3ccc(C)cc3)nc3ccccc23)C1 (centres undefined),"inconclusive [inhibitor, single point]",
CN(C)c1ccc(C(CNC(=O)c2ccc(F)cc2)c2c[nH]c3ccccc23)cc1 (centres undefined),"inconclusive [inhibitor, partial curve]",
Cc1ccc(N=Cc2c(O)[nH]c3ccccc23)c([N+](=O)[O-])c1,"inconclusive [inhibitor, partial curve]",
COC(=O)C1=CN(C(C)C)C=C(C(=O)OC)C1c1cc(Br)c(OC)c(OC)c1,"inconclusive [activator, partial curve]",
CCN1/C(=C2\C(=O)N(C)C(=S)N2C)C=Cc2ccccc21,"inconclusive [inhibitor, single point]",
CCCn1nc([N+](=O)[O-])c(C(C#N)c2nc3ccccc3o2)c(Cl)c1=O (centres undefined),"inconclusive [inhibitor, single point]",
Cc1ccc(N2CCN(C(=O)Nc3cccc([N+](=O)[O-])c3)CC2C)cc1 (centres undefined),"inconclusive [inhibitor, single point]",
CCn1c(O)c(N=NC(=O)c2cccnc2)c2cc(Br)ccc21,"inconclusive [inhibitor, single point]",
CC(C)N(Cc1nc(-c2ccccc2)no1)C(=O)c1ccc([N+](=O)[O-])cc1,"inconclusive [inhibitor, partial curve]",
O=C(Nc1nc2c(cc3c4c(cccc42)CC3)s1)c1ccccc1Cl,"inconclusive [activator, partial curve]",
COc1ccccc1/C=C(/C(=O)OCC(=O)Nc1ccc(N(C)C)cc1)c1ccccc1,"inconclusive [inhibitor, partial curve]",
Cc1nn(S(=O)(=O)c2cccc([N+](=O)[O-])c2)c(C)c1Br,"inconclusive [inhibitor, partial curve, poor fit]",
COc1ccccc1N1CCN(C(=O)CN(C)S(=O)(=O)c2ccc3c(c2)c(=O)n(C)c(=O)n3C)CC1,"inconclusive [inhibitor, full curve, poor fit]",
COc1ccc(CCNc2nc(-c3ccccn3)cs2)cc1OC,"inconclusive [inhibitor, single point]",
CSC(N)=NCCCC(N)C(=O)O (centres undefined),,inactive: 34.3%
Cc1ccc(Cl)cc1N1CCN(C(=O)CSc2nnc3n2C(C)(C)Cc2ccccc2-3)CC1,"inconclusive [inhibitor, partial curve]",
COC(=O)Cc1ccc(N(Cc2ccccc2F)S(=O)(=O)c2ccc(Br)cc2)cc1,"inconclusive [activator, partial curve]",
CN(C)c1ccc(NC(=O)c2cccc(N3C(=O)C4C5C=CC(C5)C4C3=O)c2)cc1 (centres undefined),"inconclusive [inhibitor, single point]",
